Data taken from the supplement of paper PMC10126150.
Values marked as one replicate rest on one cluster of the flow cell; about a third of the high ones do not repeat.

Test system: ATP
Assay: switch fluorescence ratio, 500 uM ATP over buffer (Cy3 cluster intensity, sum of 5 cycles each) (fold (ratio)); higher = stronger signal-on switching upon ATP binding; sequences stand for … in TCGTCGGCAGCGTCAGATGTGTATAAGAGACAGTTTTTTTTTTTTTTTTTTTTTTTTT…TC
Conditions: aptamer strand: ATP DNA aptamer (quencher-CACCTGGGGGAGTATTGCGGAGGAAGG + anchor), 100 nM annealed; ATP concentration: 500 uM; one replicate
Procedure, shortened: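 Values give the fluorescence ratio for each switch-domain sequence, averaged from per-cluster ratios of summed target-cycle to summed buffer-cycle Cy3 intensity. The Cy3-labelled switching-strand clusters sat on a modified Illumina MiSeq flow-cell, were annealed to 100 nM quencher-labelled ATP aptamer, and were imaged in selection buffer, then after 15 min with 500 uM ATP at 22 °C. Five cycles ran with NaOH stripping and re-annealing between them, and clusters outside 100-1000 RFU were excluded.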
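Note: ATP exposure 15 min at 22 °C before imaging.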

| Sequence | switch fluorescence ratio |
| --- | --- |
| AAATCATTTC | 1.03 |
| AGGAGACATT | 1.04 |
| ATTTCGTACC | 1.05 |
| CCGATGCGTC | 1.99 |
| TATCGAGGCC | 1.07 |
| TCGGTGACCG | 0.988 |
| AATGAAGGGT | 0.983 |
| AGCGCAAAGA | 1.04 |
| AGATCATGAT | 0.986 |
| CAATAGATAC | 1.28 |
| CCACTCCCCA | 1.05 |
| CCAGGGAAG | 1.04 |
| ATCCCAAAGA | 0.978 |
| TCGCGATTG | 1.02 |
| TTTGGTCACC | 1.01 |
| TTTCTGGTGT | 1.04 |
| TAATTAAGAA | 1.02 |
| TCGACCTTTG | 1.06 |
| GTGGTTAAAG | 0.999 |
| TAGATATAGC | 0.98 |
| TTTAGTAGCC | 0.964 |
| CGGTGACCTC | 1.02 |
| CCAGGATCTT | 1.02 |

| Sequence | switch fluorescence ratio |
| --- | --- |
| GACATGTAGG | 1.02 |
| GAGTTTACAT | 1.01 |
| GCAGCGTCAA | 1.01 |
| AGGAAAGGAC | 1.06 |
| GATGGAGAGG | 0.984 |
| GGATTATGAC | 0.973 |
| ATTGTATGAA | 0.981 |
| GTGTCTCACA | 0.98 |
| TTACAGGAAT | 0.958 |
| CCGCCTCGAT | 3.68 |
| CCAACCAGAG | 1.09 |
| GGTGATTAG | 1.01 |
| GTCGCTCTTA | 0.985 |
| CTCATTTGCT | 0.976 |
| AAGGAATCAG | 1.06 |
| ACCTGTTCGG | 1.04 |
| AGAGTGTGTG | 0.958 |
| ATCCGCTAAA | 4.09 |
| CCAAGTGAG | 0.983 |
| CGCGCCTTTC | 1.27 |
| GACTGGGTAT | 1.05 |
| CCTTGGGAA | 1 |
| GACTGTGTGG | 0.963 |

| Sequence | switch fluorescence ratio |
| --- | --- |
| GTTTGAGTGG | 0.975 |
| TCCTGGTGCA | 1.36 |
| AGAGGTCT | 1.03 |
| AGGGGCCGTT | 1 |
| TAATATATTA | 0.959 |
| CTGTGGAAGT | 0.986 |
| CAGTCCGTT | 1 |
| AGTGGCCTAA | 0.986 |
| AGTTTGTGCT | 0.963 |
| TAGGAGCCGA | 1.05 |
| AGCATTACAT | 1.12 |
| TTAAGACGGA | 1.03 |
| ACCGGGGAAA | 0.956 |
| GTAATGCGGT | 1.01 |
| ACGGAATGTC | 1.21 |
| TCAGTTGTAA | 1 |
| AAGCGCTTAG | 0.972 |
| ATCTAGGTAA | 1.01 |
| GCGCTAGGAA | 1 |
| TTGCTACCAG | 1.01 |
| CTGAATTTTG | 0.976 |
| CGTCCAGTTT | 1.09 |
| AGGACTCAGT | 1.01 |

| Sequence | switch fluorescence ratio |
| --- | --- |
| GGGTTACCAA | 1 |
| ATAGGCGCGT | 1.01 |
| GAACTGGGT | 1.01 |
| TAACTCCCG | 1.15 |
| TGGTCGTATC | 1.05 |
| TGCTGTTTTA | 1.01 |
| GATCTTTGGT | 1.02 |
| ATATAAAAGG | 1 |
| AGAGTAAGTA | 0.991 |
| GGGAATAGAC | 1.03 |
| CTGTCCGGCA | 1.05 |
| GATAGGGTAG | 0.978 |
| AGGTCCTCGG | 0.956 |
| GACACGAAGC | 1.06 |
| CATAACGGGA | 1.03 |
| TATCGCCCGA | 1.03 |
| TCTCATAGGA | 0.98 |
| GAAGGCAGTT | 1.01 |
| CTGGGCCCTG | 1.03 |
| ATAGACTGCT | 1.01 |
| TTCGTGCCTT | 1.05 |
| ATATTTAAAG | 1.01 |
| GTTCATGACA | 0.986 |

| Sequence | switch fluorescence ratio |
| --- | --- |
| AGAGCTCGAT | 1.01 |
| TTGCGCCGGG | 0.959 |
| AATCTTTAGC | 1 |
| ACTAGGTGGC | 1.14 |
| AGAACCTTGA | 1.08 |
| TTTGGGCCT | 1.12 |
| CGCAAAAGAA | 0.984 |
| GCTCGACCTT | 1.11 |
| CTGTGTAACG | 0.946 |
| CCGGGGACCA | 1.02 |
| GGTTTCAGGA | 1 |
| CAACAACTTT | 0.99 |
| GTCATTCGG | 0.971 |
| TTAGAACGGT | 1 |
| GAATAAGTAA | 1.07 |
| GTTCTCAGA | 0.982 |
| CAATGTTTA | 1.07 |
| ATCCTGTGCG | 1.03 |
| GACTGGATAC | 2.57 |
| TTGGTTTCGG | 1.01 |
| CGCTTTAAT | 1.05 |
| CGTAGGGCAC | 1.09 |
| TTCCTGAAGA | 1.03 |

| Sequence | switch fluorescence ratio |
| --- | --- |
| GGCGATCCCT | 1 |
| GCGCCTAAAG | 1.05 |
| TGCGGCAACG | 0.976 |
| GTATTTGGCT | 1.02 |
| TTTTCGGTAC | 2.61 |
| ATTGTTGGGT | 0.99 |
| GCAAGCATTT | 1.03 |
| CACTGTGAGC | 1.06 |
| TGCCAGGGCT | 0.874 |
| CACTAAACGA | 1.11 |
| TCTGTCAT | 0.996 |
| GAGATAATAT | 0.982 |
| TTTTCGTCCG | 1.04 |
| GTTCTAATAT | 0.973 |
| GACATAATTG | 1.01 |
| GTCGCAACG | 1.01 |
| TCGATCGCTC | 2.45 |
| TAGCCCCCAA | 1.04 |
| AAAAAACACT | 1 |
| CGGTGCGCGT | 0.979 |
| GTTGCTGGAA | 0.993 |
| ACCCAGGATG | 3.91 |
| TTATTCGTAT | 1.41 |

| Sequence | switch fluorescence ratio |
| --- | --- |
| ATTGAGTTTC | 1.04 |
| TCCTTTCATT | 0.968 |
| GTAATGCACA | 1.05 |
| GAAATGGTG | 1.02 |
| ATTGCGATG | 1.04 |
| TTGTATGTTG | 0.993 |
| CTAGGACTAG | 1.07 |
| TATGACTCGC | 1.08 |
| GCCGCTTCTA | 1.05 |
| ATGGTAGTG | 0.97 |
| ATTTGGTTGC | 0.983 |
| AAAACAATGC | 1.62 |
| TATAAGATTG | 1.03 |
| GGTCACTGAC | 1.02 |
| ATGCGTCATA | 1.01 |
| TGCTAGCAA | 1.02 |
| TACTGTAGTG | 0.996 |
| ACTTGGAATG | 1.01 |
| TGTAAGGCT | 1.07 |
| CACCTTGGTC | 0.971 |
